# Laboratory results from the supplement of paper PMC3334620.
# In all, about 33,000 sequences were measured (“E-score (-0.5 to 0.5)”: median about -0.021, highest 2% from about 0.32 on). This is one part of the list.
# Target: T1, Zap1 (UniProt P47043)
# T1 sequence: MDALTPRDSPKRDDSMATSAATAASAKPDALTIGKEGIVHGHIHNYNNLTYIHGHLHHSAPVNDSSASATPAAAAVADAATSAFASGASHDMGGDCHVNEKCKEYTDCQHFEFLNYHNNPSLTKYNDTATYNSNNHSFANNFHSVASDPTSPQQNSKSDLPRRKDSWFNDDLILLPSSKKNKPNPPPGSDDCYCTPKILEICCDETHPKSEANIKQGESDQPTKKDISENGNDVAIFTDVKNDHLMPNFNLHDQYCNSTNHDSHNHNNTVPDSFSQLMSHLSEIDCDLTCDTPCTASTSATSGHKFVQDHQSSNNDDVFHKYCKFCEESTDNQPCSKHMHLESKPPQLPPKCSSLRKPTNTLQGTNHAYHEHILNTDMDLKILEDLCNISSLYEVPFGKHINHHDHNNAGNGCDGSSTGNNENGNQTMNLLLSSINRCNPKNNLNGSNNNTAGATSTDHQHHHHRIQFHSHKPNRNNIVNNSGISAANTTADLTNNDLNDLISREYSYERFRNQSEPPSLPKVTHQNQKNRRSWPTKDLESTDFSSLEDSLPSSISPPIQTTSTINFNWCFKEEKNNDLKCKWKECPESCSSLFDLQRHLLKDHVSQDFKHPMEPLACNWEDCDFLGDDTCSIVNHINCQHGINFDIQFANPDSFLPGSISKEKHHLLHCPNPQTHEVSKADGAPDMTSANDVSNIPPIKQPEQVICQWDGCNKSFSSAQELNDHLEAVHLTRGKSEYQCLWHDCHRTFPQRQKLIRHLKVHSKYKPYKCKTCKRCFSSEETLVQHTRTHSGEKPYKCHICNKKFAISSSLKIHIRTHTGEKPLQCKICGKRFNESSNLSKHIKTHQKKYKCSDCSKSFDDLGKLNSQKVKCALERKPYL
# Experiment: PBM E-score (8-mer binding enrichment) (E-score (-0.5 to 0.5)); higher = stronger / more preferred TF binding; most listed sequences are background and not binding sites
# Settings: protein concentration: 200 nM; construct: GST-full length
# Procedure: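 Universal 'all 10-mer' protein binding microarrays (Agilent AMADID 015681) probed with GST-tagged S. cerevisiae TFs (full-length or DBD) made by in vitro transcription/translation (PURExpress), about 100-200 nM. Bound TF was detected with fluorescent anti-GST. Each ungapped 8-mer (which stands for itself and its reverse complement) is scored by the PBM enrichment score (E-score), a modified Wilcoxon-Mann-Whitney statistic from -0.5 to +0.5, computed with the Universal PBM Analysis Suite. Scale: above 0.35 generally sequence-specific binding.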
row,Sequence,PBM E-score
1,AGGTTGCG,0.333
2,ACCGTTGC,0.0636
3,CTAATAGC,-0.172
4,ATGTCAAG,-0.0774
5,AAATAGGC,-0.206
6,AGTATGGG,0.134
7,TAAATGGA,0.0234
8,GAAGACCC,0.236
9,CCCAAATA,0.0595
10,GAGGCGCA,-0.202
11,GTATAAAC,0.17
12,AAGTGCGC,-0.119
13,CATAAGAA,0.14
14,GGAGCCTA,-0.0319
15,CCACGCAG,0.108
16,GCGAACCA,0.136
17,ATGAAAGG,0.0617
18,TACCTTGA,0.337
19,AATTATAA,0.167
20,TAAGAAGA,0.128
21,ATACCGAT,-0.0434
22,AAAGATGC,-0.0891
23,ACCATACT,0.163
24,CGACTCCC,-0.183
25,TCCCCCCA,-0.409

row,Sequence,PBM E-score
1,CAAATGAA,0.0531
2,ATGCGATA,-0.0301
3,GCGGTTTA,0.0853
4,ATGCGAGG,0.0405
5,GCCTTGAA,0.0337
6,AATCCTAG,-0.0394
7,CCCGCAGA,0.0927
8,TCTACACA,0.0487
9,AAAACCCC,0.276
10,AAGTTCCA,-0.0841
11,ATAGTTTG,0.201
12,CAAGGGCC,0.0489
13,AGCCACGC,-0.207
14,AAATTGCC,0.0634
15,GAGGCTCC,-0.155
16,TAAAGTTA,0.178
17,CCGCGACC,0.31
18,ATGGCTCC,-0.196
19,CCCGGTCG,-0.0704
20,CAGCAACG,0.126
21,GGACGACC,-0.09
22,AGCTAGAA,-0.0496
23,AGCTGAGA,-0.132
24,AAACGTTC,0.141
25,CTACCCCA,0.139

row,Sequence,PBM E-score
1,CTGATCTA,0.00891
2,ACCGCTCT,-0.13
3,AGCAGCGG,-0.00451
4,CGCTTGTC,-0.0941
5,GAGACCGC,-0.0744
6,GTGCTGTA,-0.06
7,CATGAATC,-0.00321
8,AATCGTAA,0.132
9,CCAGCATC,-0.0956
10,GATAAAAC,0.205
11,CCGAGTCA,-0.0379
12,TACCCGGA,0.26
13,AGTCAGCC,-0.327
14,CCAATGGC,-0.087
15,CACCAAAA,0.235
16,CACTAGGC,-0.193
17,AGGAGTGG,-0.0525
18,TCTGGTCA,0.137
19,AACACTGC,0.0234
20,ACTACGGA,-0.17
21,ATTCAAGC,0.0343
22,ACCAGGGC,-0.129
23,ATCGGTAG,-0.0461
24,CAATCATA,-0.00937
25,TAAGGGCA,-0.0345

row,Sequence,PBM E-score
1,ATAAAGAA,0.0657
2,TAGTCATA,-0.227
3,AATACCAT,0.201
4,GGAAGACA,-0.156
5,CATGTAAA,-0.231
6,ACTATTAG,0.0955
7,AAAAGGTA,0.405
8,ACTCCGAA,0.047
9,CACTACTG,-0.154
10,GAAGGCCA,-0.0514
11,AATAACAA,0.0521
12,CCAAGCCA,-0.122
13,TCGTACAA,0.148
14,AAGAAAAG,-0.016
15,GGGGCGTA,-0.0203
16,CCGGCTGA,-0.129
17,CACTACCG,0.129
18,ACTTTGTC,0.0752
19,CCAGCTCA,-0.164
20,ATCTTATA,0.206
21,CCCAGATA,-0.104
22,ATTGACCG,0.102
23,CAACGCGG,0.0863
24,ACAGCCGC,-0.195
25,ACCATTCA,0.228

row,Sequence,PBM E-score
1,GGTGCGAA,0.068
2,ATAGAGTA,-0.0955
3,TCGACACA,-0.0281
4,ACAAGCCG,-0.223
5,GAACACGA,0.0697
6,AAGATAGT,0.0593
7,GGTTCAAC,0.115
8,AAGGGCCA,0.0177
9,CGCGCAAA,0.2
10,TCCACTAA,0.11
11,ACTCCTAA,0.0931
12,CTGGGTAA,0.185
13,ACTGCGTA,-0.248
14,ATAACATA,0.146
15,CGCCCGAG,-0.035
16,ACCCCGAT,0.197
17,AGCTTTCA,0.00388
18,AATGGCCA,0.284
19,AGCGTCGA,-0.0253
20,CAAACAGC,-0.00325
21,CGACGGTC,-0.00952
22,GGTTGGAC,-0.0843
23,AAGTGCTA,-0.303
24,CAAACAAA,0.169
25,AAGGGAGA,-0.189

row,Sequence,PBM E-score
1,TGGCTACA,-0.0519
2,CACCTTGC,-0.0856
3,GCTGCATA,-0.0279
4,CTCATCAC,-0.0421
5,GATCATGA,0.29
6,AATGTGCT,-0.0872
7,TCCGGTCA,-0.00083
8,ACGCTTTC,-0.0677
9,CTGGCATC,-0.278
10,AGGGCCTA,-0.171
11,CTATGGTC,0.144
12,CTGGCGTA,-0.341
13,AAGGTATC,0.255
14,AATCCGCA,0.151
15,CTGCCCCA,-0.083
16,ATCGGGTG,0.202
17,ATACACGC,-0.091
18,GCTATGAA,-0.0097
19,GAAACTAA,0.0657
20,AACACAAT,0.152
21,GTCCAGTA,-0.0637
22,ATTGTACG,-0.165
23,AGCTTATA,-0.119
24,ACTTCACC,0.0658
25,CCCTGAGC,0.0436

row,Sequence,PBM E-score
1,ACCATCAG,0.102
2,CATTGGAA,0.0492
3,CGGGGGAC,-0.228
4,AATCTCCA,-0.0264
5,CAAAGTAG,-0.0671
6,ACTATAGG,0.0613
7,ACTCGACT,-0.153
8,AGGCAGAC,-0.138
9,GACTTCTA,-0.176
10,ACGGTGGA,-0.137
11,CCTGAACA,-0.0412
12,GAGCCCAC,-0.258
13,AGTGAAAT,-0.158
14,CCTAAGTC,-0.0361
15,CCTCTAAG,0.139
16,CTGGCCTC,-0.166
17,GGGCGTAA,-0.101
18,AGGAGTTC,-0.274
19,AACTTCAG,-0.0949
20,AAGTGTAC,0.0488
21,GGTTGAAA,0.0732
22,CGCAAACC,0.0968
